Measured values reported in the supplement of paper PMC9046079.
Counter-ions that a name gives are not always drawn. ± gives the standard deviation of the averaged measurements. This is one part of the list.

Tests used:
[1] = system: murine small intestinal organoids (ENR+CD Paneth differentiation); test: cellular ATP (CellTiter-Glo 3D) relative to plate median (log10 fold change); higher = more viable cells; details: 6 d
[2] = system: murine small intestinal organoids (ENR+CD Paneth differentiation); test: carbachol-stimulated secreted lysozyme activity relative to plate median (log10 fold change); higher = more Paneth cell lysozyme secretion; details: 6 d, carbachol 10 µM
[3] = system: murine small intestinal organoids (ENR+CD Paneth differentiation); test: basal (non-stimulated) secreted lysozyme activity relative to plate median (log10 fold change); higher = more Paneth cell lysozyme secretion; details: 6 d
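Throughout, for basal (non-stimulated) secreted lysozyme activity relative to plate median: ISC-enriched organoid precursors grown as 2.5D pseudo-monolayer on Matrigel, compound given on day 0 and day 3, plate values LOESS-normalized before median fold change, three murine donors.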
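Throughout, for cellular ATP (CellTiter-Glo 3D) relative to plate median: 2.5D pseudo-monolayer culture of ISC-enriched organoids partly embedded atop Matrigel, compound added on day 0 and again on day 3, per-plate LOESS correction before median fold change.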

Row | Compound | cellular ATP (log10) ([1]; 0.08 µM) | cellular ATP (log10) ([1]; 0.4 µM) | cellular ATP (log10) ([1]; 2 µM) | cellular ATP (log10) ([1]; 10 µM) | carbachol-stimulated secreted lysozyme activity (log10) ([2]; 0.08 µM) | carbachol-stimulated secreted lysozyme activity (log10) ([2]; 0.4 µM) | carbachol-stimulated secreted lysozyme activity (log10) ([2]; 2 µM) | carbachol-stimulated secreted lysozyme activity (log10) ([2]; 10 µM) | basal (log10) ([3]; 0.08 µM) | basal (log10) ([3]; 0.4 µM) | basal (log10) ([3]; 2 µM) | basal (log10) ([3]; 10 µM)
1 | CC(C)N(CC[C@H](c1ccccc1)c1cc(CO)ccc1O)C(C)C | -0.0622 ± 0.36 | 0.0868 ± 0.11 | 0.0344 ± 0.12 | 0.0167 ± 0.044 | 0.0588 ± 0.06 | 0.0207 ± 0.021 | 0.00798 ± 0.023 | 0.0387 ± 0.022 | 0.184 ± 0.14 | 0.0763 ± 0.025 | 0.154 ± 0.1 | 0.0336 ± 0.093
2 | CCOc1ccccc1N=Nc1c(C)[nH]n(-c2nc(-c3ccccc3)cs2)c1=O | 0.209 ± 0.089 | -0.0102 ± 0.21 | -0.156 ± 0.72 | -0.114 ± 0.47 | 0.117 ± 0.2 | 0.0653 ± 0.086 | 0.0768 ± 0.056 | 0.00889 ± 0.079 | 0.0449 ± 0.14 | -0.00937 ± 0.078 | 0.0572 ± 0.13 | -0.00728 ± 0.1
3 | COc1cc2c(cc1-c1c(C)noc1C)ncc1[nH]c(=O)n([C@H](C)c3ccccn3)c12 | -0.0162 ± 0.2 | -0.174 ± 0.24 | -0.502 ± 0.074 | -0.935 ± 0.24 | -0.323 ± 0.045 | -0.41013 ± 0.00031 | -0.502 ± 0.018 | -0.501 ± 0.039 | -0.116 ± 0.077 | -0.248 ± 0.09 | -0.299 ± 0.12 | -0.284 ± 0.15
4 | O=C1C(=O)N(Cc2ccc(Cl)c(Cl)c2)c2ccccc21 [Apoptosis Activator 2] | 0.304 ± 0.33 | 0.262 ± 0.27 | 0.0816 ± 0.037 | -0.158 ± 0.32 | 0.0424 ± 0.06 | 0.00854 ± 0.014 | -0.0181 ± 0.015 | -0.313 ± 0.24 | 0.149 ± 0.064 | 0.0333 ± 0.084 | -0.00566 ± 0.044 | -0.199 ± 0.16
5 | O=C(NOC[C@H](O)CO)c1ccc(F)c(F)c1Nc1ccc(I)cc1F | -0.502 ± 0.7 | -1.16 ± 0.41 | -0.867 ± 0.7 | -0.963 ± 0.86 | -0.256 ± 0.039 | -0.294 ± 0.011 | -0.286 ± 0.025 | -0.325 ± 0.06 | -0.12 ± 0.036 | -0.122 ± 0.028 | -0.139 ± 0.081 | -0.187 ± 0.053
6 | O=C(Oc1cc(S(=O)(=O)c2ccccc2)ccc1[N+](=O)[O-])c1ccc(Cl)cc1 | 0.275 ± 0.29 | 0.288 ± 0.16 | -0.18 ± 0.67 | 0.199 ± 0.12 | 0.302 ± 0.098 | 0.0961 ± 0.18 | 0.0998 ± 0.12 | 0.0749 ± 0.12 | 0.0913 ± 0.073 | 0.0246 ± 0.094 | 0.0237 ± 0.11 | -0.0308 ± 0.082
7 | Oc1ccc(Nc2nc(-c3ccc(Cl)cc3)cs2)cc1 | 0.205 ± 0.17 | 0.175 ± 0.2 | 0.183 ± 0.17 | -0.356 ± 0.28 | 0.036 ± 0.044 | 0.15 ± 0.1 | 0.0315 ± 0.055 | -0.155 ± 0.33 | 0.0709 ± 0.11 | 0.0868 ± 0.025 | 0.0412 ± 0.039 | -0.11 ± 0.22
8 | O=c1cc(-c2ccc(O)cc2)oc2cc(O)cc(O)c12 [Apigenin] | 0.246 ± 0.15 | 0.214 ± 0.25 | 0.315 ± 0.27 | 0.0265 ± 0.16 | 0.181 ± 0.18 | 0.148 ± 0.1 | 0.167 ± 0.081 | 0.0952 ± 0.052 | 0.132 ± 0.071 | 0.13 ± 0.1 | 0.232 ± 0.11 | 0.0973 ± 0.094
9 | CN(C)CCOc1ccc(/C(=C(/CCCl)c2ccccc2)c2ccccc2)cc1 [Toremifene Citrate] | -0.095 ± 1 | 0.0552 ± 0.54 | -0.751 ± 1.1 | -1 ± 1.1 | -0.159 ± 0.34 | 0.123 ± 0.25 | 0.0571 ± 0.24 | -0.248 ± 0.17 | -0.0335 ± 0.15 | 0.0258 ± 0.12 | 0.0172 ± 0.23 | -0.149 ± 0.12
10 | N#Cc1c(O)c2c(-c3ccc(-c4ccccc4O)cc3)csc2[nH]c1=O | -0.0743 ± 0.096 | 0.00687 ± 0.19 | -0.127 ± 0.25 | -0.0152 ± 0.051 | 0.122 ± 0.037 | 0.0559 ± 0.079 | 0.276 ± 0.33 | -0.00681 ± 0.079 | 0.0452 ± 0.1 | 0.0688 ± 0.079 | 0.0543 ± 0.018 | 0.00856 ± 0.065
11 | CC(=O)Nc1cccc2c1c(Sc1ccc(Cl)cc1)c(C)n2CC(=O)O | 0.4 ± 0.25 | 0.285 ± 0.3 | 0.0989 ± 0.14 | 0.238 ± 0.28 | 0.0085 ± 0.035 | 0.196 ± 0.22 | -0.0256 ± 0.095 | 0.0241 ± 0.067 | 0.00925 ± 0.048 | 0.000913 ± 0.093 | 0.00127 ± 0.0066 | 0.0236 ± 0.069
12 | CCNC(=O)c1noc(-c2cc(C(C)C)c(O)cc2O)c1-c1ccc(CN2CCOCC2)cc1 | -1.18 ± 0.6 | -1.34 ± 0.57 | -1.14 ± 0.88 | -1.27 ± 0.42 | -0.275 ± 0.048 | -0.239 ± 0.036 | -0.282 ± 0.022 | -0.265 ± 0.014 | -0.144 ± 0.074 | -0.154 ± 0.045 | -0.138 ± 0.055 | -0.153 ± 0.063
13 | CC(C)CC(=O)Nc1n[nH]c2c1CN(C(=O)C1CCN(C)CC1)C2(C)C | 0.113 ± 0.089 | 0.132 ± 0.09 | -0.144 ± 0.17 | -0.856 ± 0.35 | 0.0405 ± 0.28 | 0.0815 ± 0.012 | -0.0558 ± 0.053 | -0.332 ± 0.14 | 0.0316 ± 0.11 | 0.00978 ± 0.025 | -0.136 ± 0.043 | -0.267 ± 0.075
14 | CC(C)(C)Cn1c(N)nc2ccc(-c3[nH]c(C(C)(C)C)nc3-c3ccc(F)cc3)nc21 | -0.299 ± 0.16 | -0.34 ± 0.39 | -0.339 ± 0.27 | -0.332 ± 0.19 | 0.0282 ± 0.11 | -0.0734 ± 0.088 | -0.106 ± 0.14 | -0.164 ± 0.011 | 0.0653 ± 0.27 | -0.1 ± 0.065 | 0.0433 ± 0.27 | -0.126 ± 0.04
15 | C[C@H](CS)C(=O)N1CCC[C@H]1C(=O)O [Captopril] | -0.0561 ± 0.097 | 0.108 ± 0.096 | 0.123 ± 0.1 | 0.107 ± 0.31 | 0.0242 ± 0.07 | 0.113 ± 0.094 | 0.0139 ± 0.14 | 0.0928 ± 0.18 | 0.0587 ± 0.079 | 0.0353 ± 0.049 | 0.0327 ± 0.11 | 0.153 ± 0.14
16 | CC(C)C[C@H](NC(=O)[C@H](Cc1ccccc1)NC(=O)c1cnccn1)B(O)O [Bortezomib (PS-341)] | -1.904 ± 0.015 | -2.15 ± 1.3 | -0.915 ± 0.6 | -1.36 ± 0.98 | -0.299 ± 0.048 | -0.224 ± 0.1 | -0.304 ± 0.0052 | -0.289 ± 0.1 | -0.148 ± 0.061 | -0.105 ± 0.064 | -0.133 ± 0.056 | -0.153 ± 0.045
17 | COCCCC/C(=N\OCCN)c1ccc(C(F)(F)F)cc1 [Fluvoxamine maleate] | 0.115 ± 0.24 | 0.254 ± 0.25 | 0.211 ± 0.18 | 0.138 ± 0.19 | 0.13 ± 0.1 | 0.155 ± 0.12 | 0.045 ± 0.04 | -0.0208 ± 0.098 | 0.0738 ± 0.049 | 0.0869 ± 0.054 | 0.0893 ± 0.12 | -0.027 ± 0.11
18 | O=C(N/N=C/c1ccc(O)c(O)c1)c1cc2ccccc2cc1O [Dynasore] | -0.248 ± 0.34 | -0.253 ± 0.79 | -0.152 ± 0.48 | -0.0108 ± 0.18 | 0.161 ± 0.13 | 0.235 ± 0.18 | 0.0135 ± 0.0062 | 0.0899 ± 0.031 | 0.0495 ± 0.079 | -0.0202 ± 0.055 | 0.0361 ± 0.033 | 0.0476 ± 0.099
19 | CCn1c2ccccc2c2cc(Nc3ccnc(NCCCN4CCOCC4)n3)ccc21 | 0.0809 ± 0.27 | 0.0616 ± 0.12 | 0.0882 ± 0.24 | -0.757 ± 0.5 | 0.184 ± 0.12 | 0.0464 ± 0.0074 | 0.0265 ± 0.0048 | -0.421 ± 0.074 | 0.177 ± 0.23 | 0.0347 ± 0.061 | 0.029 ± 0.08 | -0.203 ± 0.19
20 | O=C(NNc1nc2cc(F)ccc2n2cccc12)c1cnccn1 | -0.0309 ± 0.29 | 0.277 ± 0.35 | -0.317 ± 0.18 | -0.748 ± 0.83 | 0.104 ± 0.082 | -0.000248 ± 0.07 | -0.148 ± 0.11 | -0.314 ± 0.24 | 0.0387 ± 0.048 | -0.00798 ± 0.054 | -0.0487 ± 0.097 | -0.184 ± 0.15
21 | CC[C@H](NC(=O)[C@H](C)NC)C(=O)N1C[C@@H](O)C[C@H]1Cc1c(-c2[nH]c3cc(F)ccc3c2C[C@@H]2C[C@H](O)CN2C(=O)[C@H](CC)NC(=O)[C@H](C)NC)[nH]c2cc(F)ccc12 [Birinapant] | -0.257 ± 0.15 | 0.0945 ± 0.19 | 0.227 ± 0.42 | 0.122 ± 0.049 | 0.099 ± 0.37 | 0.193 ± 0.13 | -0.0238 ± 0.022 | -0.105 ± 0.07 | 0.0323 ± 0.012 | -0.0117 ± 0.061 | 0.0364 ± 0.056 | -0.0294 ± 0.035
22 | CC(C)(C)c1cc(/C=C(\C#N)C(N)=S)cc(C(C)(C)C)c1O [Tyrphostin AG 879] | -0.354 ± 0.24 | -0.263 ± 0.2 | -0.23 ± 0.11 | -0.331 ± 0.44 | -0.0983 ± 0.043 | -0.119 ± 0.12 | 0.129 ± 0.19 | -0.00169 ± 0.12 | -0.0621 ± 0.0074 | -0.103 ± 0.08 | -0.0878 ± 0.039 | -0.0475 ± 0.16
23 | Oc1ncnc2[nH]ncc12 [Allopurinol] | 0.212 ± 0.18 | -0.098 ± 0.13 | -0.162 ± 0.21 | -0.454 ± 0.47 | 0.0248 ± 0.012 | -0.15 ± 0.11 | -0.086 ± 0.036 | -0.161 ± 0.14 | 0.0193 ± 0.024 | -0.0361 ± 0.08 | -0.0041 ± 0.024 | -0.0508 ± 0.06
24 | C[C@H](N[C@@H](CCc1ccccc1)C(=O)O)C(=O)N1CCC[C@H]1C(=O)O [Enalaprilat Dihydrate] | -0.19 ± 0.18 | -0.124 ± 0.21 | -0.331 ± 0.29 | -0.979 ± 0.82 | 0.0433 ± 0.059 | 0.17 ± 0.21 | -0.112 ± 0.14 | -0.382 ± 0.1 | 0.00306 ± 0.052 | -0.00345 ± 0.06 | -0.0224 ± 0.072 | -0.157 ± 0.14
